These are yes or no findings as the source states them, for the method shown. Some binding calls cover weakened binding; strength is not graded here.

Protein sequences, listed by entry. Tags and fused reporters are not part of them.
UniProt Q38832: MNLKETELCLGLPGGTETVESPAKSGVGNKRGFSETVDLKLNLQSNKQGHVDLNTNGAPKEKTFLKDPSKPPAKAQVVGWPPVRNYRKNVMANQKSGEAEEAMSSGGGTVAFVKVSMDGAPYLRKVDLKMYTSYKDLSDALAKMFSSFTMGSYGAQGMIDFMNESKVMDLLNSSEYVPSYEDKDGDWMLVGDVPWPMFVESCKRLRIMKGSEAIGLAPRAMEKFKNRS
UniProt Q38825: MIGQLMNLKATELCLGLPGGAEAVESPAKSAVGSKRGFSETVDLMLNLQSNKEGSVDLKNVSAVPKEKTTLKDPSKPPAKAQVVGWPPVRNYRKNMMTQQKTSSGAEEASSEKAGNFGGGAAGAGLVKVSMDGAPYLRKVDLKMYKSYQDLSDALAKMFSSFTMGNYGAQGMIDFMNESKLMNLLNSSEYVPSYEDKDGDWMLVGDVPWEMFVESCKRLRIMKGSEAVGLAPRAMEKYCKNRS
UniProt P93830: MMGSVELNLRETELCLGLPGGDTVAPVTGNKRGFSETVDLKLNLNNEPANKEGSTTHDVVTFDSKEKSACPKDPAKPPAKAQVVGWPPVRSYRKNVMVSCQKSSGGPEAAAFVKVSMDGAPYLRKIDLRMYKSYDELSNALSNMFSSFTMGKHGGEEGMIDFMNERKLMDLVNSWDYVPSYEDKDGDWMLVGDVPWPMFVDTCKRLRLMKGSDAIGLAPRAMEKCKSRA

What all share (experiment): two-hybrid; S. cerevisiae AH109 co-transformed with pGBKT7-ARF (bait) and pGADT7-Aux/IAA (prey); growth on SD/-Ade-His-Leu-Trp against SD/-Leu/-Trp; at least 10 independent colonies; serial dilutions for strength
Assay [1] addresses T1, ARF6 (Arabidopsis thaliana) (UniProt Q9ZTX8).
T1 sequence: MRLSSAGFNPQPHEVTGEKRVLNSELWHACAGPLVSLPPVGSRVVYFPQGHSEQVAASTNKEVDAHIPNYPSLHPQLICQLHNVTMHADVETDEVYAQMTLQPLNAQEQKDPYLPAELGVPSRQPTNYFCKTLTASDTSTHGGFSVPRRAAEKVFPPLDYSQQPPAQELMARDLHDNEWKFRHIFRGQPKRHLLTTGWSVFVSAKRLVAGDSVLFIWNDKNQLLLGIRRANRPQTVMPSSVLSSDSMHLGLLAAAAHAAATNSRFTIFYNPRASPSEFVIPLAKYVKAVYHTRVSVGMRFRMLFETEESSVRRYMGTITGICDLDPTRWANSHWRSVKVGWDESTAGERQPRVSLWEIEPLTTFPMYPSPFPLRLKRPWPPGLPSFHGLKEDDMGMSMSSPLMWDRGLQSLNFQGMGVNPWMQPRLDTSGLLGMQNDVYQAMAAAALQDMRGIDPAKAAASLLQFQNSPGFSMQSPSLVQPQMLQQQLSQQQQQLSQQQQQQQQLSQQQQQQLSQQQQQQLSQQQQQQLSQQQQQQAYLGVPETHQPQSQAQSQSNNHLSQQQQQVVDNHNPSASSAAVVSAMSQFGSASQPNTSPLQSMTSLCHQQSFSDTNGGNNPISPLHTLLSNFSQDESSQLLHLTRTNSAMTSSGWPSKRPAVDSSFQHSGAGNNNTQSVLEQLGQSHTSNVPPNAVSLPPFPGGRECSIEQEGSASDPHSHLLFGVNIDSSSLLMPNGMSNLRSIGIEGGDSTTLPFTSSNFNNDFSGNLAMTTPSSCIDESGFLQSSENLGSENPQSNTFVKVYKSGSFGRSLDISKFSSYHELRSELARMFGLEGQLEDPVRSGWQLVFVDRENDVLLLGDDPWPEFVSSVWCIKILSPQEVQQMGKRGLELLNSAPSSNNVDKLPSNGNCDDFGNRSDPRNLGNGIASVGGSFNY

The target of assay [2] is T2, ARF11 (Arabidopsis thaliana) (UniProt Q9ZPY6).
T2 sequence: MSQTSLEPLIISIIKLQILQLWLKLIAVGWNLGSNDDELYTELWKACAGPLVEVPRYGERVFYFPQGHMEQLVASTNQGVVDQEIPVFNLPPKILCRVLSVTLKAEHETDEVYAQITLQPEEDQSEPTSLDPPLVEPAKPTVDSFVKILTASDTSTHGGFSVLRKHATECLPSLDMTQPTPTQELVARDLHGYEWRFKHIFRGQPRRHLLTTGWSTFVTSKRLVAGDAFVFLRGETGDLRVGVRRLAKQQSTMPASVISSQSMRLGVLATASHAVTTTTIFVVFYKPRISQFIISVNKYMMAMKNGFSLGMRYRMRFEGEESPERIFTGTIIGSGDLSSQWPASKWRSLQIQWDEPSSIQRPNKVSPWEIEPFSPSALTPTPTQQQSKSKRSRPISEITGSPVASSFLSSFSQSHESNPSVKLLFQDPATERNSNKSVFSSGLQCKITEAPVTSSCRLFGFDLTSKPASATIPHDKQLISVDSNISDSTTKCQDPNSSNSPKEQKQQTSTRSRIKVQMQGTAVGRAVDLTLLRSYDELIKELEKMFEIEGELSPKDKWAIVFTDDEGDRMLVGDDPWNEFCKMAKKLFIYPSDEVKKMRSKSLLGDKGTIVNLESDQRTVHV

Assay [3] has as its target T3, ARF16 (Arabidopsis thaliana) (UniProt Q93YR9).
T3 sequence: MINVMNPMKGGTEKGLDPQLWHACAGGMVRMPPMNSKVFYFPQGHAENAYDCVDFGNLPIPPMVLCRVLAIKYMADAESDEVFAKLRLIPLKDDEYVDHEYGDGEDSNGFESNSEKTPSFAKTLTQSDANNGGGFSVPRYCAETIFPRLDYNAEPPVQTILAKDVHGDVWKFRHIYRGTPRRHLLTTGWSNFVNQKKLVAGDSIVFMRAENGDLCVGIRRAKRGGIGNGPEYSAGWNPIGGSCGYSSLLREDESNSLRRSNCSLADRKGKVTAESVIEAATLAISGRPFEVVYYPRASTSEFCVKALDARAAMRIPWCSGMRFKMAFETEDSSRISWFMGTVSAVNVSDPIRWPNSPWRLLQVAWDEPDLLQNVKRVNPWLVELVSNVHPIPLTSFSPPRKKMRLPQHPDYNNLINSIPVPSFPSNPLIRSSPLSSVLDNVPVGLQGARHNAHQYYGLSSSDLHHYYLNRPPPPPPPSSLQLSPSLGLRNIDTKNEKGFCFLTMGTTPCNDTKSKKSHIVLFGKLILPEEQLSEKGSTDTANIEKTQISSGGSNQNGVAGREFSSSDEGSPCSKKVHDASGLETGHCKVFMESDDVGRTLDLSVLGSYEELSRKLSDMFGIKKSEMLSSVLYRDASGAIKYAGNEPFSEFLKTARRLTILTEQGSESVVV

As for Aux/IAA14 (from UniProt Q38832 1-228), the binding entry in assay [1] is on record as “binds”; in assay [2] it was “no binding”.

Turning to Aux/IAA7 (from UniProt Q38825 1-243), the results for the binding result in assay [1] and in assay [2] were “binds” and “no binding”, respectively.

With Aux/IAA17 (from UniProt P93830 1-229), the binding entry in assay [1] was “binds”; in assay [2] it was “no binding”.

B1: Aux/IAA33 (protein, UniProt Q9FKM7 1-171)
chain: MNSFEPQSQDSLQRRFHQDNSTTQQPRDTTTPFIPKPASKNHNNSNSSSGAAGRSFQGFGLNVEDDLVSSVVPPVTVVLEGRSICQRISLDKHGSYQSLASALRQMFVDGADSTDDLDLSNAIPGHLIAYEDMENDLLLAGDLTWKDFVRVAKRIRILPVKGNTRQVKRNE
As for B1, the binding result in assay [3] is on record as “binds”.

B2: Aux/IAA34 (protein, UniProt Q9C5X0 1-185)
chain: MYCSDPPHPLHLVASDKQQKDHKLILSWKKPTMDSDPLGVFPNSPKYHPYYSQTTEFGGVIDLGLSLRTIQHEIYHSSGQRYCSNEGYRRKWGYVKVTMDGLVVGRKVCVLDHGSYSTLAHQLEDMFGMQSVSGLRLFQMESEFCLVYRDEEGLWRNAGDVPWNEFIESVERLRITRRNDAVLPF
For B2, in assay [3], the binding result is given as “binds”.

B3: Aux/IAA32 (protein, UniProt Q8RYC6 1-191)
chain: MDPNTPADFFKGSSKFHTYYSQTKKGGGVIDLGLSLRTIQHETYLPPARMIGLDGYGELIDWSQPSYNSITQLKSEDTGHQRLAQGYYNNEGESRGKYAYVKVNLDGLVVGRKVCLVDQGAYATLALQLNDMFGMQTVSGLRLFQTESEFSLVYRDREGIWRNVGDVPWKEFVESVDRMRIARRNDALLPF
B3: in assay [3], the binding entry was “binds”.

B4: Aux/IAA5 (protein, UniProt P33078 1-163)
chain: MANESNNLGLEITELRLGLPGDIVVSGESISGKKRASPEVEIDLKCEPAKKSQVVGWPPVCSYRRKNSLERTKSSYVKVSVDGAAFLRKIDLEMYKCYQDLASALQILFGCYINFDDTLKESECVPIYEDKDGDWMLAGDVPWEMFLGSCKRLRIMKRSCNRG
Consider B4, for which the binding entry in assay [3] is “binds”.

Values taken from publication PMC4274898.
